Laboratory results from PubChem BioAssay AID588855 (National Center for Advancing Translational Sciences (NCATS), 2011).
“And” between values parts separate entries of the source, which are not always exact repeats. Identical values can stand only once. Among all 410,000 compounds or so, about 5,000 (1.2%) were called active. Inconclusive means that the source gave no clear call. Such entries were picked first, then a sample of the others. Calls come from the whole dose curve; as a rule, active = well fitted inhibition curve with a large enough effect; inconclusive = small, poorly fitted or top-dose-only effect; inactive = no such curve, though single readings can be large or run the other way. Where the call is inconclusive, the potency comes from a doubtful curve fit.
% is set by controls: 0 for no effect and ±100 for the full control effect; potency is the fitted concentration of half-maximal effect; tags give direction and shape of the fitted curve.

Test: qHTS for Inhibitors of TGF-b; note: nearly all actives have a fitted effect of over 65% in size
Details: HepG2 CAGA-GFP TGF-b/SMAD3 reporter, GFP fluorescence, 18 h, TGF-beta stimulated, 500 pg/mL final; series mostly up to 46.1 µM; activity, negative = inhibition: at the top concentration
Outline: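 Using HEPG2 CAGA-GFP reporter cells at 1000 cells/well, we pinned test compounds, stimulated with recombinant TGF-beta (500 pg/mL final) and measured total well GFP after 18 h.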
For `COc1ccc(S(=O)(=O)Nc2cccc3cccnc23)c(N)c1`, the Potency was inconclusive: 3.98 µM [inhibitor, full curve, poor fit]. For `CCOC(=O)c1c(C)[nH]c(N=Nc2ccccc2)c1C`, the Potency was inconclusive: 35.5 µM [inhibitor, single point]. In the case of `C=CC[C@H](CC(=O)NCCO)C(=O)N[C@H](COC(=O)[C@@H](CC=C)Cc1ccc(F)cc1)Cc1ccccc1`, the “activity, negative = inhibition” value is reported as inactive: -24.9%. In the case of `Cc1ccc(NC(=O)c2ccc(Cl)c(NC(=O)c3cccs3)c2)cc1`, the Potency is reported as inconclusive: 6.31 µM [inhibitor, partial curve, poor fit]. In the case of `NC(=S)N/N=C/c1ccccc1OC(=O)c1cc2ccccc2oc1=O`, the “activity, negative = inhibition” value is reported as inactive: -13.6%. With `COc1ccccc1C1c2ccc3ccccc3c2Oc2ncn(CCN(C)C)c(=N)c21` (stereo unspecified) the Potency was inconclusive: 22.4 µM [inhibitor, single point]. With `Cc1cc(O)c(C=Nc2ccc(N3CCOCC3)cc2)c(C)c1Cl` the “activity, negative = inhibition” value was inactive: 17.6%. For `Cc1ccccc1-c1nc(CS(=O)CC(=O)NCc2ccc3c(c2)OCO3)c(C)o1` (stereo unspecified), the Potency was inconclusive: 11.2 µM [inhibitor, partial curve]. In the case of `CN1CC(c2ccccc2)C2(SC(=S)N(Cc3ccco3)C2=O)C12C(=O)Nc1ccccc12` (stereo unspecified), the Potency is reported as inconclusive: 35.5 µM [inhibitor, single point]. For `CC1Sc2ccc(S(=O)(=O)N3CCC(C(=O)NCc4ccc(Cl)cc4)CC3)cc2NC1=O` (stereo unspecified), the Potency was inconclusive: 35.5 µM [inhibitor, single point]. For `COC(=O)c1[nH]c2ccccc2c1Sc1ccccc1`, the Potency was inconclusive: 35.5 µM [inhibitor, single point]. For `COCCNC(=S)N1CCc2cc(OC)c(OC)cc2C1COc1cc(C)cc(C)c1` (stereo unspecified), the Potency was inconclusive: 25.1 µM [inhibitor, single point]. In the case of `N#CC1=C(N)Oc2c(O)cc3ccccc3c2C1c1ccsc1` (stereo unspecified), the Potency is reported as inconclusive: 35.5 µM [inhibitor, single point]. With `CCCC[C@H]1COCCS(=O)(=O)N1Cc1cccc([N+](=O)[O-])c1` the Potency was “inactive”. In the case of `Cc1sc2nc3ccc(NCc4ccco4)nn3c(=O)c2c1C`, the “activity, negative = inhibition” value is reported as inactive: 2.46%. With `Cc1ccc(Cl)cc1N1CCN(C(=O)c2cn(C3CCCCC3)c(=O)c3c2c2ccccc2n3C)CC1` the Potency was inconclusive: 22.4 µM [inhibitor, partial curve, poor fit]. With `CCn1c2ccccc2c2cc(C3C(C#N)=C(N)Oc4n[nH]c(COC)c43)ccc21` (stereo unspecified) the Potency was active: 10 µM. For `N#Cc1cc(Oc2cccc3cccnc23)c(-n2nnc3ccccc32)cc1C#N`, the Potency was active: 6.31 µM. With `Cc1cc(C(=O)N/N=C/c2cc(Br)ccc2OC(=O)c2ccccc2)n[nH]1` the “activity, negative = inhibition” value was inactive: -21.1%. With `O=C(NC(=S)Nc1cccc(O)c1)C1CCCCC1` the Potency was inconclusive: 10 µM [inhibitor, partial curve, poor fit]. In the case of `Cc1nnc(N/N=C/c2cccc(OCc3ccc(Cl)c(Cl)c3)c2)n1N`, the Potency is reported as active: 22.4 µM. For `CCCc1nc2ccccc2c(C(=O)OCC(=O)N2CCc3ccccc32)c1CC`, the Potency was inconclusive: 6.31 µM [inhibitor, single point]. With `CCOc1ccc(-n2c(C)cc(C(=O)CCl)c2C)cc1` the Potency was active: 12.6 µM. For `Cc1ccc(NC(=O)CN2CCCN(Cc3cc(C)ccc3C)S2(=O)=O)c(Cl)c1`, the Potency was inconclusive: 2.24 µM [inhibitor, partial curve, poor fit]. For `COc1cccc(N2CCN(C(=O)C3CCC(CNS(=O)(=O)c4ccc(Br)s4)CC3)CC2)c1` (stereo unspecified), the Potency was inconclusive: 2.82 µM [inhibitor, single point]. For `COc1ccc(CNC(=O)CCNC(=O)N2CCn3c2nc2ccccc23)cc1`, the “activity, negative = inhibition” value was inactive: -2.68%. With `c1csc(CNc2ncnc3ccc(-c4ccc5c(c4)OCO5)cc23)c1` the Potency was inconclusive: 14.1 µM [inhibitor, single point]. In the case of `O=c1cc(-c2ccccc2)oc2cc(O)cc(O)c12`, the Potency is reported as inconclusive: 28.2 µM [inhibitor, single point]. For `CCOC(=O)N1CCN(c2ncnc3scc(-c4ccc(Cl)cc4)c23)CC1`, the Potency was active: 15.8 µM. In the case of `CC(=O)NC1C(=O)N(CCc2ccccc2)c2ccc(Br)cc21` (stereo unspecified), the Potency is reported as inconclusive: 22.4 µM [inhibitor, single point]. In the case of `COc1cc(C(=O)NNC(=S)NC(=O)c2ccccc2C)cc(OC)c1OC`, the Potency is reported as inconclusive: 35.5 µM [inhibitor, single point]. In the case of `COc1ccc(N=C2S/C(=C\c3ccc(OC(C)C(=O)O)c(OC)c3)C(=O)N2CCc2c[nH]c3ccccc23)cc1` (stereo unspecified), the Potency is reported as inconclusive: 31.6 µM [inhibitor, single point]. With `Fc1cccc(-n2ncc(-c3nnnn3-c3ccccc3)c2C(F)(F)F)c1` the “activity, negative = inhibition” value was inactive: -4.3%. In the case of `CN(c1cccc(NC(=O)CN(c2ccc(C34CC5CC(CC(C5)C3)C4)cc2)S(C)(=O)=O)c1)S(C)(=O)=O`, the Potency is reported as active: 11.2 µM. In the case of `CC(=O)Nc1ccc(NC(=O)CCCSc2nc3ccccc3[nH]2)cc1`, the “activity, negative = inhibition” value is reported as inactive: -13.1%. For `CC1CCN(c2c(NCc3ccc(C(=O)N4CCc5ccccc54)cc3)c(=O)c2=O)CC1`, the Potency was inconclusive: 7.94 µM [inhibitor, partial curve, poor fit]. In the case of `c1coc(CNc2nc(N3CCCCC3)nc3ccccc23)c1`, the Potency is reported as active: 10 µM. For `CN(C)c1ccc(/C=C/c2ccc3c4ccccc4ccc3[n+]2-c2ccccc2)cc1`, the Potency was inconclusive: 2.82 µM [inhibitor, partial curve, poor fit]. For `NCC1C2CCC(O2)C1CO` (stereo unspecified), the “activity, negative = inhibition” value was inactive: 5.84%. With `O=C(Cc1c(F)c(F)c(F)c(F)c1F)Nc1nc(-c2ccccc2)cs1` the Potency was inconclusive: 35.5 µM [inhibitor, single point]. For `CC1Cc2ccccc2N1C(=O)CSc1nc2ccccc2s1` (stereo unspecified), the Potency was inconclusive: 35.5 µM [inhibitor, single point]. For `CCOCCCNC(=O)c1ccc2c(c1)N=C(CC)c1cc(Br)ccc1S2`, the Potency was inconclusive: 12.6 µM [inhibitor, partial curve, poor fit]. With `CCOC(=O)c1noc2ncnc(N3CCN(c4ccccc4OC)CC3)c12` the Potency was inconclusive: 35.5 µM [inhibitor, partial curve, poor fit]. With `Cc1ccccc1CSCCNC(=O)CN(c1ccc2c(c1)OCO2)S(C)(=O)=O` the “activity, negative = inhibition” value was inactive: -2.56%. In the case of `COCC(C)n1c(C)cc(C(=O)CSc2nnc(-c3ccco3)o2)c1C` (stereo unspecified), the “activity, negative = inhibition” value is reported as inactive: -3.28%. For `CCOC(=O)c1c(C)c(-c2ccccc2)n(CC(=O)Nc2cc(OC)cc(OC)c2)c1C`, the Potency was inconclusive: 7.94 µM [inhibitor, partial curve]. With `COc1ccccc1N(C)S(=O)(=O)c1ccc(C(=O)N(C)Cc2ccc(OC(F)F)cc2)cc1` the Potency was inconclusive: 35.5 µM [inhibitor, single point]. For `CCN1c2ccccc2-c2nc(SCC(=O)Nc3ccc(C)c(Cl)c3)ncc2S1(=O)=O`, the Potency was inconclusive: 3.98 µM [inhibitor, partial curve, poor fit]. For `O=C(NC1CC1)C1=C[C@H](c2ccc(Br)cc2)C[C@H](OCc2ccc(CO)cc2)O1`, the Potency was inconclusive: 0.631 µM [inhibitor, partial curve, poor fit]. For `Cc1ccc(C)c(N(C)C(=O)C2CCN(S(=O)(=O)c3cccc4nsnc34)CC2)c1`, the Potency was inconclusive: 20 µM [inhibitor, partial curve, poor fit]. For `O=C(CCl)N1CCN(S(=O)(=O)c2ccc3ccccc3c2)CC1`, the Potency was inconclusive: 35.5 µM [inhibitor, single point]. For `NNC(=O)CNC(c1ccccc1)c1cc(Br)ccc1NC(=O)c1cccc(Cl)c1` (stereo unspecified), the Potency was inconclusive: 35.5 µM [inhibitor, single point]. For `Clc1ccc(-c2csc(=Nc3cccnc3)n2CCCn2ccnc2)cc1Cl`, the Potency was inconclusive: 20 µM [inhibitor, single point]. With `COc1cc(/C=C(\C#N)c2[nH]nc(N)c2C#N)cc(OC)c1O` the Potency was inconclusive: 15.8 µM [inhibitor, partial curve]. With `COc1ccc(CN(C(C)=O)c2ccccc2C(=O)O)cc1` the “activity, negative = inhibition” value was inactive: 10.4%. For `COc1ccc(NC(=O)CS(=O)(=O)c2ccc(Br)cc2)cc1`, the “activity, negative = inhibition” value was inactive: 18.6%. In the case of `CS(=O)(=O)N1CCc2cc(S(=O)(=O)N3CCN(Cc4ccc5c(c4)OCO5)CC3)ccc21`, the Potency is reported as inconclusive: 35.5 µM [inhibitor, single point]. With `Cc1ccc(S(=O)(=O)Nc2ccccc2NS(=O)(=O)c2ccc(C)cc2)cc1` the Potency was inconclusive: 17.8 µM [inhibitor, single point]. With `COc1ccc(C2/C=C\CN(C(=O)OCc3ccccc3)CC(=O)N2Cc2ccc(F)cc2)cc1` (stereo unspecified) the Potency was inconclusive: 7.94 µM [inhibitor, partial curve, poor fit] and inconclusive: 35.5 µM [inhibitor, single point]. With `CCOC(=O)c1c(C2CC2)csc1NC(=O)COC(=O)c1ccc[n+]([O-])c1` the “activity, negative = inhibition” value was inactive: 4.1%. For `C[C@@H](C(=O)NCCc1c[nH]c2ccccc12)[C@@H]1C[C@@]1(C)[C@@H](NC(=O)OCc1ccccc1)c1ccccc1`, the Potency was inconclusive: 14.1 µM [inhibitor, partial curve, poor fit]. With `C=CCn1c(-c2cc(OC)c(OC)c(OC)c2)n[nH]c1=S` the “activity, negative = inhibition” value was inactive: -2.79%. With `Cc1ccc2c(c1)c1c3n2CC(=C2C(=O)OC(C)(C)OC2=O)NC3CCC1` (stereo unspecified) the Potency was inconclusive: 35.5 µM [inhibitor, single point]. In the case of `CCCCn1nnc(N(C(=O)c2cccs2)C(=O)c2cccs2)n1`, the Potency is reported as inconclusive: 14.1 µM [inhibitor, single point]. For `CCOC(=O)c1cc2c(OC)ccc(OC)c2n1CC(=O)c1ccccc1`, the “activity, negative = inhibition” value was inactive: 4.33%. In the case of `O=C(NCc1cccnc1)c1nnc(Cc2ccc(F)cc2)o1`, the Potency is reported as inconclusive: 22.4 µM [inhibitor, single point].
